# Data reported in paper PMC6919601, “Identification of Plasmodium dipeptidyl aminopeptidase allosteric inhibitors by high throughput screening” (PLoS ONE, 2019).
# About 230 (0.21%) of roughly 110,000 compounds showed an effect of 50% or more. Some of the results follow.
# Biological target: DPAP1 (Plasmodium falciparum, UniProt Q8IIJ9)
# Experiment: primary screen, percent inhibition; read by cleavage of a fluorogenic dipeptide substrate; higher = more effect of the substance
# Design: species or system P. falciparum D10 trophozoite lysates; single well
# 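Also: 30 min substrate incubation versus DMSO and 10 µM JCP410 controls.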
# Sequence of DPAP1 (Q8IIJ9 whole entry, looked up): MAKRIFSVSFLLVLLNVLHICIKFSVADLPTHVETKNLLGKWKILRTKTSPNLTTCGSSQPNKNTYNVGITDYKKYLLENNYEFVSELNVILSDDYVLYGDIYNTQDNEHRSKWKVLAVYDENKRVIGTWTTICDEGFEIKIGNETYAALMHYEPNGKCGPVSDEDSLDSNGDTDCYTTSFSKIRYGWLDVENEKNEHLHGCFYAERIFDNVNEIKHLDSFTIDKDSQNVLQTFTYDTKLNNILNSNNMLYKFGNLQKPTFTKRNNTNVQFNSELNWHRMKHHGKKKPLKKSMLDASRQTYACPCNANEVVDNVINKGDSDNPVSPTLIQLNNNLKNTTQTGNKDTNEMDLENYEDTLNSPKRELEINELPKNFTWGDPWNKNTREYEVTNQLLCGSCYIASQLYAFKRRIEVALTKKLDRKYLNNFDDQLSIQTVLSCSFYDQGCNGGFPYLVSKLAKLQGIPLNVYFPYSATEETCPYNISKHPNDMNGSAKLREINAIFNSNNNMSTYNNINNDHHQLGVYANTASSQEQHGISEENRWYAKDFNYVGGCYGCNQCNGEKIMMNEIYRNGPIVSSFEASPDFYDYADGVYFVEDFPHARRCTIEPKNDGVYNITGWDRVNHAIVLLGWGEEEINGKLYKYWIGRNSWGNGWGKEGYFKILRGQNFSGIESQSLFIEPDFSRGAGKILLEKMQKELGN
row,SMILES,% Inhibition @ 10 uM [%]
1,Cc1cccc(-n2nnc(-c3nc(-c4ccccc4F)no3)c2N)c1,-2.76
2,Cc1nc2ccc(NC(=O)N(C)c3ccccc3)cc2s1,1.94
3,CSc1nn2c(=O)cc(CSc3nnc(C)s3)nc2s1,15
4,CC1=C(C(=O)Nc2cccc(C)c2C)C(c2ccccc2Br)NC(=O)N1 (centres unmarked),-12.5
5,COc1ccc(-c2nnn3c2nc(NCc2ccccc2Cl)c2ccccc23)cc1,-1.21
6,CCc1nccn1C(=O)CCCC(=O)O,6.11
7,CCOc1ccc(CCNC(=O)c2ccc(CS(=O)(=O)c3ccc(C)cc3)o2)cc1OCC,0.458
8,Cc1cc(C)c(C#N)c(SCC(=O)NCc2ccc3c(c2)OCO3)n1,-0.68
9,Cc1cc(CNC(=O)c2cccc(C(F)(F)F)c2)c2ccccc2n1,4.61
10,Cc1nnc(N2CCC(C(=O)NCCCc3ccccc3)CC2)c2nn(-c3ccccc3)c(C)c12,5.3
11,COc1ccc(CCNC(=O)C2CCCN(c3ncnc4c3nc3n4CCCCC3)C2)c(OC)c1 (centres unmarked),2.82
12,Cc1ccc(N2C(=O)NC(=O)/C(=C/NCCO)C2=O)cc1C,0.792
13,CCOC(=O)c1c(C)[nH]c(C)c1S(=O)(=O)N1CCC(C(=O)NCc2ccc(Cl)cc2)CC1,-0.695
14,O=C(c1ccccc1)N1c2ccccc2C=Cc2ccccc21,-0.591
15,O=C(O)C1CCC(CNS(=O)(=O)c2cccc3nsnc23)CC1 (centres unmarked),-5.76
16,COc1ccccc1CCNC1CCC(c2ccccc2)CC1 (centres unmarked),-1.21
17,Cc1[nH]c2ccccc2c1CCN(Cc1ccncc1)C(=S)NC(C)(C)C,3.49
18,Cc1ccc(NC(=O)C2CCCN(c3ncnc4c3nc3n4CCCCC3)C2)nc1 (centres unmarked),0.00353
19,COC(=O)c1c(NC(=O)c2ccccc2)sc(C(=O)Nc2ccccc2F)c1C,1.39
20,COC(=S)/N=C(\NCS(=O)(=O)c1ccc(C)cc1)c1ccccc1,-5.28
21,CCOc1ccc(CSc2nnc(N)s2)cc1-n1nc2ccccc2n1,-3.34
22,O=C(NCCN1CCOCC1)c1nnc(Cc2cccc(F)c2)o1,4.24
23,CCN(CC)CCOC(=O)C1(c2ccc([N+](=O)[O-])cc2)CCCC1,3.44
24,COc1cc(OC)cc(OCC(O)Cn2cnc3cc(C)c(C)cc32)c1 (centres unmarked),-1.11
25,Cc1ccc(/C=C2\SC(=O)N(Cc3ccc(F)cc3)C2=O)o1,-4.82

row,SMILES,% Inhibition @ 10 uM [%]
1,COc1cc2c(cc1OC)C(=C(Cl)Cl)NC(C)(C)C2,-2.15
2,Cc1cc(C(=O)Nc2ccc3oc(-c4cccc(Br)c4)nc3c2)ccc1[N+](=O)[O-],2.54
3,CCCOc1ccc(-c2nc(N(CC)CC)c3ccccc3n2)cc1,0.146
4,CC(=O)Nc1ccc(NC(=O)COc2cc(C)c(Br)c(C)c2)cc1,14.7
5,CCOC(=O)C1CCCCN1Cc1ccccc1C(F)(F)F (centres unmarked),1.55
6,Cc1ccc(COc2ccc3c(C)cc(=O)oc3c2)cc1,-5.9
7,CCn1c(=N)c(C(=O)OC)cc2c(=O)n3cc(C)ccc3nc21,-9.1
8,CC1CN(C)C(C)c2c1oc1c([N+](=O)[O-])cccc21 (centres unmarked),-4.58
9,Cn1c(=O)c2c(nc(CN3CCC(Cc4ccccc4)CC3)n2CCCO)n(C)c1=O,-3.23
10,O=C(N1CCN(S(=O)(=O)c2ccc(Cl)cc2)CC1)N(c1ccccc1)c1ccccc1,5.31
11,COc1ccccc1-c1nc(-c2ccc(Cl)cc2Cl)no1,-1.4
12,COCc1nc(-c2cc3ccc(C)cc3nc2O)no1,-5.62
13,CCn1c(C(=O)N2CCC(C(=O)NCc3ccc(C)cc3)CC2)cc2sccc21,1.77
14,COc1ccc(-c2c(C)nn3c(N4CCOCC4)cc(C)nc23)cc1OC,-11.6
15,CCOc1ccc(C2=CC(=O)C(c3ccccc3)CC2)cc1 (centres unmarked),5.77
16,Cc1ccc(CN2CCN(c3ccccn3)CC2)c(C)c1,4.81
17,Cc1ccc2c(Cl)c(C(=O)N(Cc3ccccc3F)C3CCS(=O)(=O)C3)sc2c1 (centres unmarked),0.366
18,COc1ccc(-c2cc(N)n(S(=O)(=O)c3ccc(F)c(C)c3)n2)c(OC)c1,1.15
19,COc1cc(NC(=O)C2CC2)c(OC)cc1Cl,0.219
20,CCN(CC)C(=O)C1CCCN(Cc2cccc([N+](=O)[O-])c2)C1 (centres unmarked),-3.95
21,CCc1ccc(-c2cc3c(=O)n(CC(=O)NCc4ccc(C)cc4)nc(C)n3n2)cc1,-1.08
22,COc1cc(CN2CCN(C(=O)c3ccco3)CC2)cc(OC)c1OC,7.1
23,O=C1OC(/C=C/c2cccc(Cl)c2Cl)=NC/1=C\c1ccco1,11.5
24,Cc1cc(C(=O)N2CCC(C)CC2)c2c(C)nn(-c3ccccc3Cl)c2n1,3.75
25,O=C(O)C1C2C=CC(C2)C1C(=O)N1CCN(C/C=C/c2ccccc2)CC1 (centres unmarked),-2.45
